# The other results are listed elsewhere or left out. Binding of human antibodies (heavy:light variable regions, tested as scFv in one mRNA-display pool) to influenza hemagglutinin, with or without the stem antibody CR9114 bound first. Score = (mean enrichment − median) / interquartile range of that screen; higher = more enriched, 0 = typical non-binder. Active = above the paper's cut-off per screen: stems 28; unblocked H1 Solomon Islands 5, H1 Michigan 3, H3 5, H5 19, H7 2.85, both B 5; blocked 9, 7, H5 10, H7 10, B Phuket 10, B Lee 11.5. Scores are scaled within each screen and are no affinities; replicates correlate at about 0.6 to 0.9, and antibodies rare in the pool are noisier.
# B1: antibody 2E04 (protein)
# chain 1: QVQLQESGPRLVKPSETLSLTCAVSGYSISNYYWGWIRQPPGKGLEWIGSLNHRGNTFYSPSLKSRVTISVDTSKNHFSLKVNSVTAADTAVYYCARGNYYDVDLKLFYFDYWGQGTLVTVSS
# chain 2: DIQMTQSPSSLSASVGDRVTITCRASQNIKTYLNWYQQKPGKAPNLLIYGASSLESGVPSRFSGSGSGTEFTLTISSLQPEDFATYYCQQSYKMFTFGGGTKVEIK
# B2: W85-1A11 (protein)
# chain 1: EVQLLESGGGLVQPGGSLRLSCTASGFTFSNYAMTWVRQPPGKGLEWVSSISGSGGRTYYADSVKGRFTISRDNSKNTLYLQMNSLRAEDTAVFYCAAASPLLRWYCLDYWGQGTLVPVSS
# chain 2: NFMLTQPHSVSESPGKTVTISCTGSSGSITSNYVQWYQQRPGSAPTTVIYEDNQRPSGVPDRFSGSIDSSSNSASLTISGLKTEDEADYYCQSYDSRNYVVFGGGT
# B3: K77-2E07 (protein)
# chain 1: QVQLVQSGDEVKKPGASMKVSCRSSGFTLTTFYMHWVRQAPGQGLEWVGLIHPNGITTTYAQNFLGRVAMTRDTSTNTVYMDLRSLRSDDTAVYFCARGRAEETWTQRWPPYSLDVWGQGTRVTVSS
# chain 2: EIVLTQSPGTLSLSPGERATLSCRASRSISSSYLAWYQQRPGQAPRLLIYGASSRATGIPDRFSGSGSGTDFTLTISTLEPEDFAVYYCQHYGSSPPVLFGPGTKVDIK
# B4: W85-3B07 (protein)
# chain 1: QVQLQESGPGLVKPSETLSLTCSVSGDSITSYYCSWIRQSPGKGLEWIGYIYYTGSTNYNPSLKSRVTISVDTSKNQFSLKLSSVTAADTAVYYCARHGQLYDVWSGYYRGPEHRYFDLWGRGTLVTVSS
# chain 2: DIVMTQSPDSLAVSLGERATINCKSSQSVLYSSNNRNFLAWYQQKPGQPPKLLISWASARESGVPDRFSGSGSGTDFTLTISNLQAEDVALYYCQQYYTTPYTFGQGTKLEIK
# B5: AG12-C05 (protein)
# chain 1: VQLQESGPGLVKPLQTLSLTCTVSGVSIANNGFYWTWVRQRPGKGLEWIGNIFYSGDTSYSPSVERRLTISLDTSKNQFSLRLASVTAADTAVYYCTVESWYSSGPGENHFDSWGQGTLVTVSS
# chain 2: DIQMTQSPSSLSASVGDTVTITCRASETIKFYLNWYQQKPGKAPKLLMSPASSFHRGAPSRFSASGSGTDFSLTISSLQPEDFATYYCQQSYITPRTFGQGTKVEIK
# B6: 16.ND.89 (protein)
# chain 1: QVQLVQSGAEVKEPGASVKVSCKVFGYTLTDLSMHWVRQAPGKGLEWMGGFDPEDDETIYAQNLQGRVTMTEDTSTDTAYMELSSLRSEDTAVYYCTTRDYYDSSGYLVDYWGQGTLVTVSS
# chain 2: DIVMTQSPDSLAVSLGERATINCKSSQSVLHWSNNKNYLAWYQQRPGQPPKLLISWASTRESGVPDRFSGSGCGTDFTLTISNLQPEDVAVYYCQQYYNTPPFTFGPGTKVDIK
# B7: AG13-3D02 (protein)
# chain 1: VQLVESGGGLVKPGGSLRLSCAASGFTFSDYYMTWIRQAPGKGLEWVSYIDSWSTYTDYPDSVKGRFTVSRDNAKNSLYLQMNSLRAEDTAVYFCARDRGDCSRTTCSFDSWGQGTLVTVSS
# chain 2: DIQMTQSPSSLSASVGDSVNITCRASQNIRRSLHWYQQKSGRAPQLLIFSVSALHGGVPTRFSGSGSGTEFTLTISSLQPEDFATYFCQQSYSRPLTFGPGTKVDIK
# Biological target: Influenza A H1N1 A/Michigan/45/2015 hemagglutinin ectodomain
# Assay: mRNA display binding score; higher = more enriched on the antigen
# Details: antigen blocked with: 2 µM CR9114 IgG
# Method: (§1)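 A pool of natively paired antibodies, displayed as scFv on mRNA, was selected once on antigen-coated beads and sequenced before and after; two replicates.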
row,Binder,mRNA display binding score
1,B1,active: 117
2,B2,inactive: 0.587
3,B3,inactive: 1.51
4,B4,inactive: 0.26
5,B5,inactive: 0.386
6,B6,inactive: -0.113
7,B7,inactive: -0.296

# Same assay, conditions: antigen blocked with: nothing
row,Binder,mRNA display binding score
1,B1,active: 6.54
2,B2,inactive: 0.701
3,B3,inactive: 1.98
4,B4,inactive: 0.0837
5,B5,inactive: 0.265
6,B6,inactive: -0.34
7,B7,inactive: 0.731

# Biological target: Influenza A H1N1 A/Solomon Islands/3/2006 hemagglutinin ectodomain
# Assay: as above
# Details: antigen blocked with: 2 µM CR9114 IgG
# Method: as §1
row,Binder,mRNA display binding score
1,B1,inactive: 1.05
2,B2,inactive: 0.24
3,B3,inactive: 1.64
4,B4,inactive: -0.0937
5,B5,inactive: -0.00683
6,B6,inactive: -0.0512
7,B7,inactive: -0.567

# Same assay, conditions: antigen blocked with: nothing
row,Binder,mRNA display binding score
1,B1,inactive: 0.268
2,B2,inactive: 0.563
3,B3,inactive: 1.52
4,B4,inactive: -0.13
5,B5,inactive: 0.399
6,B6,inactive: -0.0949
7,B7,inactive: -0.532

# Biological target: Influenza A H3N2 A/Singapore/INFIMH-16-0019/2016 hemagglutinin ectodomain
# Assay: as above
# Details: antigen blocked with: nothing
# Method: as §1
row,Binder,mRNA display binding score
1,B1,inactive: 0.239
2,B2,inactive: 0.555
3,B3,inactive: 1.37
4,B4,inactive: -0.364
5,B5,inactive: 0.0251
6,B6,inactive: 0.172
7,B7,inactive: 2.22

# Biological target: Influenza A H5N1 A/Qinghai/1A/2005 hemagglutinin ectodomain
# Assay: as above
# Details: antigen blocked with: 2 µM CR9114 IgG
# Method: as §1
row,Binder,mRNA display binding score
1,B1,inactive: 0.596
2,B2,inactive: -0.29
3,B3,inactive: 2.03
4,B4,inactive: 0.0326
5,B5,inactive: 4.52
6,B6,inactive: -0.149
7,B7,inactive: -0.368

# Same assay, conditions: antigen blocked with: nothing
row,Binder,mRNA display binding score
1,B1,inactive: 0.298
2,B2,inactive: 0.321
3,B3,inactive: 3.78
4,B4,inactive: 0.0159
5,B5,inactive: 3.89
6,B6,inactive: -0.229
7,B7,inactive: 0.324

# Biological target: Influenza A H7N9 A/Shanghai/2/2013 hemagglutinin ectodomain
# Assay: as above
# Details: antigen blocked with: 2 µM CR9114 IgG
# Method: as §1
row,Binder,mRNA display binding score
1,B1,inactive: 0.0658
2,B2,inactive: 0.0341
3,B3,inactive: 1.74
4,B4,inactive: 0.0508
5,B5,inactive: 0.441
6,B6,inactive: 0.278
7,B7,inactive: -0.0474

# Same assay, conditions: antigen blocked with: nothing
row,Binder,mRNA display binding score
1,B1,inactive: 0.374
2,B2,inactive: 1.7
3,B3,active: 3.16
4,B4,inactive: 0.214
5,B5,inactive: 0.483
6,B6,inactive: -0.409
7,B7,inactive: 1.01

# Biological target: Influenza B/Lee/1940 hemagglutinin ectodomain
# Assay: as above
# Details: antigen blocked with: 2 µM CR9114 IgG
# Method: as §1
row,Binder,mRNA display binding score
1,B1,inactive: -0.685
2,B2,inactive: 0.0202
3,B3,active: 26.9
4,B4,inactive: 1.49
5,B5,inactive: 9.4
6,B6,inactive: 0.282
7,B7,inactive: 0.191

# Same assay, conditions: antigen blocked with: nothing
row,Binder,mRNA display binding score
1,B1,inactive: 0.215
2,B2,inactive: -0.175
3,B3,active: 126
4,B4,active: 13.2
5,B5,active: 23.8
6,B6,inactive: -0.329
7,B7,inactive: 0.379

# Biological target: Influenza B/Phuket/3073/2013 hemagglutinin ectodomain
# Assay: as above
# Details: antigen blocked with: 2 µM CR9114 IgG
# Method: as §1
row,Binder,mRNA display binding score
1,B1,inactive: 0.0158
2,B2,inactive: 0.0547
3,B3,active: 42.8
4,B4,inactive: 2.35
5,B5,active: 35.4
6,B6,inactive: -0.402
7,B7,inactive: -0.022

# Same assay, conditions: antigen blocked with: nothing
row,Binder,mRNA display binding score
1,B1,inactive: -0.127
2,B2,inactive: 0.0134
3,B3,active: 44.4
4,B4,inactive: 4.3
5,B5,active: 13.9
6,B6,inactive: -0.264
7,B7,inactive: 0.329

# Source: the supplement of paper PMC11383711
